The results in this text go back to PMC4336329 (PLoS ONE, 2015).

Among all 310,000 compounds or so, about 2,200 (0.71%) showed an effect of 50% or more. The effect is printed as a negative number. The list shows a part of the results.

The target of this experiment is human ether-à-go-go-related gene (hERG) potassium channel (human, UniProt Q12809). Briefly: primary screen, population patch clamp on CHO cells stably expressing hERG.
Sequence of human ether-à-go-go-related gene (hERG) potassium channel (Q12809 whole entry, looked up): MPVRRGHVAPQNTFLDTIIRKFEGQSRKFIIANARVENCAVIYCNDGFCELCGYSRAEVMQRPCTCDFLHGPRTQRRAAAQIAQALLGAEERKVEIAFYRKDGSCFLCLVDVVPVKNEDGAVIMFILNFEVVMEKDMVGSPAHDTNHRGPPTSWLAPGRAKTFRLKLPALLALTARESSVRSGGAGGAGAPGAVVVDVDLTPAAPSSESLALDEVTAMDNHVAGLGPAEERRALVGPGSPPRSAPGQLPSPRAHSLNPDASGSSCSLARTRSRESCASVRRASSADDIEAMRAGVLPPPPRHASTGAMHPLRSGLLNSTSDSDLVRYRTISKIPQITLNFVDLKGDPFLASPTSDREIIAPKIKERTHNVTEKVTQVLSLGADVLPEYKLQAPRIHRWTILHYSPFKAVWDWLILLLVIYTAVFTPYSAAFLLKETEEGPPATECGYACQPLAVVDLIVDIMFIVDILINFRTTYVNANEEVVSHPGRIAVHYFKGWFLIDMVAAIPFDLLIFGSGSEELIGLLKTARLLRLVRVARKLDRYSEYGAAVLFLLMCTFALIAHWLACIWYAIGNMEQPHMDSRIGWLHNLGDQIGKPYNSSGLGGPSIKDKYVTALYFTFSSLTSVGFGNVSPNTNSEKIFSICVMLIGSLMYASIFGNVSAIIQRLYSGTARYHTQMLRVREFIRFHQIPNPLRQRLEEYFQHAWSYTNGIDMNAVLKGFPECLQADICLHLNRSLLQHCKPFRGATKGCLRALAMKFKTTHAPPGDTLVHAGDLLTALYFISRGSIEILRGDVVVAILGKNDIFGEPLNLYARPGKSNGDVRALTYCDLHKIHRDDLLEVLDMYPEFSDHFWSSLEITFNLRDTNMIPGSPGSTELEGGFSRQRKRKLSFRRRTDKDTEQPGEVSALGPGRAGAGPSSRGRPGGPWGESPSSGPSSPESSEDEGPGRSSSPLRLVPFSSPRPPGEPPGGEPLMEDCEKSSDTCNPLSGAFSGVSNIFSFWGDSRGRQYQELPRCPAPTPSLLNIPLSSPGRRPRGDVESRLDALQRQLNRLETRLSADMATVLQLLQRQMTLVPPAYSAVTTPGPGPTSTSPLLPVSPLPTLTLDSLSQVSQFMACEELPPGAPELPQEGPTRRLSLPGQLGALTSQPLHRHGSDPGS
For `Nc1ccc2oc(C3CCCCC3)nc2c1`, the “hERG current change (%, negative = inhibition) at 1uM” value is reported as 12.3%.

As for `COc1ccc(N2CCN(C3=CC(=O)N(c4cccc(Cl)c4)C3=O)CC2)cc1`, the “hERG current change (%, negative = inhibition) at 1uM” value is on record as 9.07%.

On to `COc1ccc(C)cc1NC(=O)c1cccc(-c2ccc(OC(C)=O)cc2)c1`, for which the “hERG current change (%, negative = inhibition) at 1uM” value stood at 8.92%.

In the case of `COC(=O)C(=NNc1c(C)n(C)n(-c2ccccc2)c1=O)C(=O)OC`, the “hERG current change (%, negative = inhibition) at 1uM” value is on record as 15.4%.

Take `CCc1nc(SCC(=O)N2CC(=O)Nc3ccccc32)c2c(C)c(C)sc2n1`: the “hERG current change (%, negative = inhibition) at 1uM” value was found to be 14.8%.

With `CCOC(=O)CCc1c(C)nc2cc(-c3ccccc3OC)[nH]n2c1=O`, the “hERG current change (%, negative = inhibition) at 1uM” value is reported as 13.9%.

As to `Cc1cc(N=CC2=C(O)CC(C)(C)CC2=O)no1`, the “hERG current change (%, negative = inhibition) at 1uM” value is listed as -13.5%.

For the compound `O=C(O)CC(Cc1ccccc1)C(=O)NCC12CC3CC(CC(C3)C1)C2` (centres unmarked), the “hERG current change (%, negative = inhibition) at 1uM” value came out at 9.06%.

Turning to `COc1cc(OC)c(C(=O)Nc2cccc(C(C)=O)c2)cc1OC`, the “hERG current change (%, negative = inhibition) at 1uM” value amounted to 0.251%.

In the case of `CC(C)CC1C(C#N)=C(N)Oc2c1c(=O)oc1ccccc21` (centres unmarked), the “hERG current change (%, negative = inhibition) at 1uM” value was 7.62%.

For the compound `CC12CC(NC(=O)N1c1cccc(C(=O)NCc3ccc4c(c3)OCO4)c1)c1cc(Cl)ccc1O2` (centres unmarked), the “hERG current change (%, negative = inhibition) at 1uM” value was -0.803%.

In the case of `O=C(NCCC1=CCCCC1)c1ccc([N+](=O)[O-])cc1`, the “hERG current change (%, negative = inhibition) at 1uM” value was determined as 5.61%.

For the compound `Cc1ccc(S(=O)(=O)NNC(=O)c2cccnc2)cc1`, the “hERG current change (%, negative = inhibition) at 1uM” value was found to be 14.1%.

For the compound `COC(=O)c1c(C)oc2c1cc(NS(=O)(=O)c1ccc(C(=O)O)cc1)c1ccccc12`, the “hERG current change (%, negative = inhibition) at 1uM” value was found to be 6.04%.

With `O=C(COc1ccc(Cl)cc1)Nc1ccc(Cl)cn1`, the “hERG current change (%, negative = inhibition) at 1uM” value was -2%.

On to `O=C(CSc1nc2ncccc2[nH]1)c1ccc(F)cc1`, for which the “hERG current change (%, negative = inhibition) at 1uM” value turned out to be 2.83%.

In the case of `O=C(c1cc(=O)c2ccccc2o1)N1CCN(c2ccccc2F)CC1`, the “hERG current change (%, negative = inhibition) at 1uM” value worked out at 9.26%.

With `COc1ccc(COC(=O)c2cccc(S(=O)(=O)N3CCCC3)c2)cc1F`, the “hERG current change (%, negative = inhibition) at 1uM” value is -0.27%.

In the case of `C=C1SC(=Nc2c(C)cccc2Cl)N(C(=O)c2sc3ccccc3c2Cl)C12CCCCC2`, the “hERG current change (%, negative = inhibition) at 1uM” value came to 14.8%.

As to `Cc1ccc2nc(SCC(=O)c3c(C)[nH]c4ccccc34)[nH]c2c1`, the “hERG current change (%, negative = inhibition) at 1uM” value turned out to be 17.4%.

Turning to `COc1ccc(S(=O)(=O)Cc2ccc(C(=O)NCCc3ccc(S(N)(=O)=O)cc3)o2)cc1`, the “hERG current change (%, negative = inhibition) at 1uM” value amounted to 12.1%.

As to `COc1ccc(CCC(=O)NCc2ccccc2Cl)cc1OC`, the “hERG current change (%, negative = inhibition) at 1uM” value is recorded as 11.5%.

As for `Cc1cc(C)cc(N(CC(=O)NC2CCC(C)CC2)S(=O)(=O)c2c(C)[nH]c(=O)[nH]c2=O)c1` (centres unmarked), the “hERG current change (%, negative = inhibition) at 1uM” value came to 5.29%.

As for `COC(=O)/C=C1\NCCNC1=O`, the “hERG current change (%, negative = inhibition) at 1uM” value is 8.32%.

As to `Cc1ccc(-c2nn(CCC(N)=O)c(=O)c3ccccc23)cc1`, the “hERG current change (%, negative = inhibition) at 1uM” value is -1.18%.

On to `CC(Oc1ccccc1)C(=O)N=Nc1c(O)[nH]c2ccc(Br)cc12` (centres unmarked), for which the “hERG current change (%, negative = inhibition) at 1uM” value turned out to be 16.9%.

On to `CC1(C)CC(=O)c2cc(OCC(=O)N3CCCCCC3)ccc2O1`, for which the “hERG current change (%, negative = inhibition) at 1uM” value is reported as -11%.

On to `Cc1ccc(OC(=O)c2cccnc2)cc1`, for which the “hERG current change (%, negative = inhibition) at 1uM” value is given as 20.1%.

Take `CCOC(=O)c1cccc(NC(=O)CSc2nnc(C3CCCCC3)n2CC)c1`: the “hERG current change (%, negative = inhibition) at 1uM” value was 5.81%.

Regarding `Cl.OC(C#CCN1CCOCC1)(c1ccccc1)C1CCCC1` (centres unmarked), the “hERG current change (%, negative = inhibition) at 1uM” value worked out at 17%.

As to `O=C(CC1C(=O)NCCN1Cc1ccc(F)c(F)c1)NCCCn1ccnc1` (centres unmarked), the “hERG current change (%, negative = inhibition) at 1uM” value amounted to 6.44%.

On to `CC(C)(C)S(=O)(=O)c1nc2ccccc2s1`, for which the “hERG current change (%, negative = inhibition) at 1uM” value is on record as 10.3%.

On to `CCOCCCNC(=S)Nc1ccc2nc(N3CCN(CC)CC3)cc(C)c2c1`, for which the “hERG current change (%, negative = inhibition) at 1uM” value is listed as 10.7%.

Regarding `O=C(COc1cc(F)ccc1[N+](=O)[O-])NCCCc1ccccc1`, the “hERG current change (%, negative = inhibition) at 1uM” value was found to be 3.23%.

As for `Cc1ccc(NC(=O)CSCC(=O)NCc2cccc(C(F)(F)F)c2)cc1`, the “hERG current change (%, negative = inhibition) at 1uM” value was determined as 6.6%.

`COc1cc(CC(NC(C)=O)C(=O)NC2CCN(C(=O)c3ccc(C)cc3)CC2)cc(OC)c1` (centres unmarked): the “hERG current change (%, negative = inhibition) at 1uM” value was 7.73%.

In the case of `CCOc1ccc(N(CC(=O)NCCC2=CCCCC2)S(=O)(=O)c2ccccc2)cc1`, the “hERG current change (%, negative = inhibition) at 1uM” value is listed as 19%.

For `CCOC(=O)c1cc(-c2ccccc2C)n(Cc2cc(C)no2)n1`, the “hERG current change (%, negative = inhibition) at 1uM” value stood at 5.9%.

`CSc1nnc(NC(=O)c2ccc(C)c(S(=O)(=O)N3CCOCC3)c2)s1`: the “hERG current change (%, negative = inhibition) at 1uM” value was 3.61%.

Consider `Cc1ccsc1/C=N/NC(=O)c1nnn(-c2nonc2N)c1C(C)C`, for which the “hERG current change (%, negative = inhibition) at 1uM” value came out at 23.9%.

For the compound `CC(=O)N(CCCN(C)C)c1nc2ccc(C)cc2s1.Cl`, the “hERG current change (%, negative = inhibition) at 1uM” value is recorded as -8.07%.

`CCOC(=O)N1CCN(c2c(-c3ccccc3)c3cc(Cl)ccc3[nH]c2=O)CC1`: the “hERG current change (%, negative = inhibition) at 1uM” value came to 1.95%.

Take `Cc1ccc(NC(=O)NC2CCCCCCC2)cc1`: the “hERG current change (%, negative = inhibition) at 1uM” value is 15%.

As to `CC(Oc1ccccc1)C(=O)Nc1cccc(NC(=O)c2ccco2)c1` (centres unmarked), the “hERG current change (%, negative = inhibition) at 1uM” value was found to be 3.33%.

Regarding `CC1CC(C)CN(S(=O)(=O)N2CCCC(C(=O)NCCc3ccc(Cl)cc3)C2)C1` (centres unmarked), the “hERG current change (%, negative = inhibition) at 1uM” value was determined as 13.1%.

Regarding `Nc1cnccc1C(=O)O`, the “hERG current change (%, negative = inhibition) at 1uM” value came to 18.9%.

`CC(C)Cc1nnc(NS(=O)(=O)c2ccc(Cl)cc2)s1`: the “hERG current change (%, negative = inhibition) at 1uM” value was 12.6%.

Regarding `CN(C(=O)c1cccnc1)c1nnc(-c2cccnc2)s1`, the “hERG current change (%, negative = inhibition) at 1uM” value was 9.58%.

`CC(/C=N/n1cnnc1)=C\c1ccco1`: the “hERG current change (%, negative = inhibition) at 1uM” value was -16.3%.

Regarding `CCCn1nnnc1NCc1ccccc1C`, the “hERG current change (%, negative = inhibition) at 1uM” value amounted to 16.9%.

As for `CCOC(=O)C(C)n1ncn2cccc2c1=O` (centres unmarked), the “hERG current change (%, negative = inhibition) at 1uM” value is on record as 10.7%.

With `NC(=O)C1(N2CCCCC2)CCN(Cc2nc3ccccc3c(=O)[nH]2)CC1`, the “hERG current change (%, negative = inhibition) at 1uM” value came to 9.71%.

Regarding `O=C(NCc1ccc2c(c1)OCO2)c1ccc(Cl)nc1`, the “hERG current change (%, negative = inhibition) at 1uM” value is -3.46%.

For `CC(C)Cn1c(N)c(C(=O)COC(=O)c2ccc([N+](=O)[O-])o2)c(=O)n(C)c1=O`, the “hERG current change (%, negative = inhibition) at 1uM” value is on record as -31%.

As to `CCOC(=O)CN1C(=O)C(O)=C(C(C)=O)C1c1ccccc1` (centres unmarked), the “hERG current change (%, negative = inhibition) at 1uM” value turned out to be 4.4%.

In the case of `Cc1ccc(NCc2cccnc2)cc1`, the “hERG current change (%, negative = inhibition) at 1uM” value was found to be 10.7%.

`Cc1ccn2c(C(=O)NN=C3CCCCCCC3)c(C)nc2c1`: the “hERG current change (%, negative = inhibition) at 1uM” value is listed as 11.3%.

For the compound `Cc1nc(CCNC(=O)C2CCC(=O)N(Cc3cccc(F)c3)C2)sc1C` (centres unmarked), the “hERG current change (%, negative = inhibition) at 1uM” value is reported as 2.82%.

For `Cc1ccsc1/C=C1/SC(=O)N(CC(=O)N2CCCC2)C1=O`, the “hERG current change (%, negative = inhibition) at 1uM” value is 5.75%.
